From PubChem BioAssay AID588453 (National Center for Advancing Translational Sciences (NCATS), 2011)
About 4,000 (1%) of roughly 390,000 compounds were called active. The shares of active, inactive and inconclusive entries below differ from those in the screen. The call rests on the fitted dose curve; in most records, active means well fitted inhibition curve with a large enough effect; inconclusive means small, poorly fitted or top-dose-only effect; inactive means no such curve, though single readings can be large or run the other way. A potency beside an inconclusive call is a rough fit, not a confirmed value.

target: Thioredoxin reductase 1, cytoplasmic (Rattus norvegicus) (UniProt O89049); assay: qHTS Assay for Inhibitors of Mammalian Selenoprotein Thioredoxin Reductase 1 (TrxR1): qHTS; conditions: recombinant rTrxR1, NADPH fluorescence consumption, selenite substrate; series mostly up to 114 µM; further: nearly all actives have a fitted effect of over 65% in size
Outline: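 Rat TrxR1 (90 nM in the dispensed reagent) was pre-reduced with 400 uM NADPH for 5 min at room temperature, then incubated with compound for 15 min. After 400 uM selenite was added, NADPH fluorescence (Ex 340/Em 450 nm) was followed for 8 min.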
Potency means the concentration at half of the fitted maximal effect; tags describe the fitted curve by direction and shape.

Chain of UniProt O89049 (O89049 whole entry, looked up): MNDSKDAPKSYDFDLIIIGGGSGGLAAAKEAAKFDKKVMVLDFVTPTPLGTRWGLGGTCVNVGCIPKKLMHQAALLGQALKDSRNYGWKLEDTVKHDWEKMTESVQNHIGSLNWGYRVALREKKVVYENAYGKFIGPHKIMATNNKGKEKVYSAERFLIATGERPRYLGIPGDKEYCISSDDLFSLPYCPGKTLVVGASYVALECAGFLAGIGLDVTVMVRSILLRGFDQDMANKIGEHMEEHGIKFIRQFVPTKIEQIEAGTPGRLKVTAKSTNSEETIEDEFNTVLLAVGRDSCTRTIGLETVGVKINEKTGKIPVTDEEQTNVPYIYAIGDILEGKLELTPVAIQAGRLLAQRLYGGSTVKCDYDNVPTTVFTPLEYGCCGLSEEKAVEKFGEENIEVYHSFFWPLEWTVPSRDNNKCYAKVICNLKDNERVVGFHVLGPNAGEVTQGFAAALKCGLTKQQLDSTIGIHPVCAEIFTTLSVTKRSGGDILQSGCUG

Row | Compound | Potency
1 | CCC[N+](C)(C)c1ccc(/C=C/c2ccncc2)cc1 | inconclusive: 79.4 µM [inhibitor, single point]
2 | O=C(N/N=C\c1ccc([N+](=O)[O-])s1)C1COc2ccccc2O1 (stereo unspecified) | inconclusive: 44.7 µM [inhibitor, partial curve]
3 | Cc1cccc(NC(=O)CN2C(=O)N/C(=C/c3ccc(C)o3)C2=O)c1 | active: 39.8 µM
4 | Nc1cccc2c1C(=O)N(C(=O)c1cccc(S(=O)(=O)N3CCCC3)c1)C2=O | inconclusive: 70.8 µM [inhibitor, single point]
5 | C=CCn1c(CCNC(=O)c2cccs2)nnc1SCC(=O)c1cccc([N+](=O)[O-])c1 | inconclusive: 15.8 µM [inhibitor, full curve, poor fit]
6 | Cc1ccc(CN(Cc2cc3cc4c(cc3[nH]c2=O)OCCO4)Cc2nnnn2Cc2ccco2)cc1 | inconclusive: 3.55 µM [inhibitor, full curve]
7 | COc1ccc(NC(=O)CSc2oc(-c3ccc(F)cc3)nc2S(=O)(=O)c2ccc(C)cc2)c(OC)c1 | inconclusive: 70.8 µM [inhibitor, partial curve]
8 | Cc1ccc(-c2cc(C(=O)OCC(=O)N(C)c3c(N)n(Cc4ccccc4)c(=O)[nH]c3=O)c3ccccc3n2)o1 | inconclusive: 70.8 µM [inhibitor, partial curve]
9 | CCN(CC)C(=O)c1ccccc1NC(=O)c1cccc(S(=O)(=O)N(CC)CC)c1 | inconclusive: 89.1 µM [inhibitor, partial curve, poor fit]
10 | Cc1cccc2cc(CN(Cc3ccco3)C(=O)c3ccncc3)c(=O)[nH]c12 | inconclusive: 50.1 µM [inhibitor, partial curve]
11 | CC(=O)Nc1cc2c(cc1C(=O)c1ccc(C)cc1)OCCO2 | inconclusive: 39.8 µM [inhibitor, single point]
12 | CC(=O)Nc1ccc(/C=C/c2ccccn2)cc1 | inconclusive: 79.4 µM [inhibitor, single point]
13 | O=C(CSc1ccc(-c2ccco2)nn1)NCc1ccccc1Cl | inconclusive: 70.8 µM [inhibitor, partial curve]
14 | Cc1ccc(OCC(=O)NCc2ccco2)cc1C | inconclusive: 25.1 µM [inhibitor, single point]
15 | CC(=O)c1ccc(-n2c(CCC(=O)O)ccc2-c2ccccc2)cc1 | inconclusive: 50.1 µM [inhibitor, partial curve]
16 | O=C(CSc1n[nH]c(-c2ccccc2)n1)c1ccccc1 | inconclusive: 89.1 µM [inhibitor, single point]
